The text below walks through data of the RNAGym collection of RNA variant scans (doi:10.7554/elife.90254).

Read counts are not given, so values of variants with three or more changes are uncertain.

To fix the notation:
B1: LINE1-full (parent)
chain: UACGUAGGUGGUUUUCCCCUGAUAGUGCUAAGGGGGCCUGGAAGUUUGGACUGGGCAGAGCUCAACACAGCGUGGCAAAGUGGCUGUGGCUAGACUGCCUCUCUGGAUUCCUCGUCACUCAGCAGGGCAUCUCUGAGAGAAAUGCC

The variants in this series derive from B1. The series can be described thus: self-cleavage, relative activity (ratio to wild type); higher = more cleavage; in vitro, sequencing; the parent is a self-cleaving ribozyme.
Regarding U14C U73C U132C A140G, the self-cleavage amounted to 0.77.
As for U9C U47C U112C, the self-cleavage is 1.23.
As for U12C U62C A124G, the self-cleavage was determined as 0.21.
On to U14C A59U U143C, for which the self-cleavage turned out to be 1.07.
The value for U9C G41U G72C A140G was 1.15; that for G54A U73C U115C A142G was 2.49; that for U96C A129C U134C was 0.
As to U14C A24U U46G A77U U102C, the self-cleavage came out at 1.25.
The value for A2G U15C U26C was 0.71; that for A78G U115C A136G was 1.44.
For U14C U81C A129U U134C A142G the value was 1.15; for A22G U26C U39A U45A G114U, 1.05; for G34A U39A U115C A129U, 1.48.
The value for A22G U45C U62C was 0; that for U62A A69G U85C was 0.34; that for C19U U62C A136G A142G was 0.07.
As for U13C A59G C118U, the self-cleavage amounted to 0.19.
For U13A U73C A141G the value was 1.15; for U9C C90A A141G, 0.07; for C19A U20G A42G A43G C101U A140G, 1.37.
In the case of A92C U112C U119A U132C, the self-cleavage is 0.26.
For G48A U62C A69U U109C A142C the value was 0.01; for U46C A65G A78G, 0.09; for U14C A78G U85C, 0.06.
For U14C U15A A136U the value was 1.36; for U12G A42U A50G G125U, 1.01; for U13C U52A U87C A138G, 0.32.
As for U14C A43G U47C A57G U62C C76U A79G A107G U108A, the self-cleavage was found to be 0.
For U62C A140G U143C, the self-cleavage was found to be 0.08.
For U5C A6C A92G the value was 0.18.
Take U13A U20C U45C U102C A141G: the self-cleavage worked out at 1.43.
Turning to U5C U39A A107U, the self-cleavage was 0.25.
For the variant U29A U62A U112A, the self-cleavage was found to be 0.06.
For G10A U13C U29C A43G U47A U102A A142G, the self-cleavage was found to be 0.79.
Regarding A24G A78C A142C, the self-cleavage came to 1.94.
For C56U U87C U112A the value was 0.02; for U62C C113U A129G, 0.21; for A2G A59G A69U, 0.
For A42G U47C A141C the value was 0.92.
Take G126U U132C U134C: the self-cleavage came to 1.95.
As for A69U U100A U132G U143C, the self-cleavage came to 0.06.
U39A U100A G114U: the self-cleavage was found to be 1.01.
Regarding G89A U102A U109C C110U C116U, the self-cleavage amounted to 0.03.
The value for U73A A79U C84U A129G was 0.04.
For A57U A59C A138U, the self-cleavage worked out at 0.14.
Take A77G C90G U108C G114A: the self-cleavage stood at 0.01.
The value for U29C U39A A77G C128U was 2.21; that for U39A A77U U134C was 1.13.
Take U46C C84G U96A: the self-cleavage turned out to be 0.09.
The value for G4U A79G U102C A107G was 0; that for U12G G74A A142C U143C G144U was 1.53; that for G27A A57G U87C was 0.1.
The value for C3U U14C A77G A92U A129U was 0.9; that for U15C U47A A142C was 1.51; that for G36C U47C U134G was 0.65.
For U5A C19A U23C A43U A117U A136U the value was 0.78; for G34U C76U A140G, 2.2; for U9C U46C U62C, 0.
Consider G32U A77U A78G A136G, for which the self-cleavage was 1.22.
For U20C U45C U46C A69U, the self-cleavage stood at 0.
On to G127U A138G A141G, for which the self-cleavage amounted to 1.04.
With G82A U112C A141G A142G, the self-cleavage is 2.57.
The value for A24G G82A A121U was 1.38; that for U62A U85C A107G was 0; that for U13C U15A U52C A124G G127U A129G was 0.92.
The value for A92G U132A A140G was 0.14; that for A30U G33U A78G A138U was 0.95.
As for C113U A124G U132A, the self-cleavage worked out at 1.19.
The value for G32U U62A U143C was 0.02.
For the variant A64U U96C U108C U132C, the self-cleavage was determined as 0.
Take U62C U85A U130C: the self-cleavage was determined as 0.04.
The value for A92G A136G A141G was 0.03; that for A22G U81A A142G was 2.27; that for C28G A65U A117G was 0.19.
Take U26C A64G U96A A129G: the self-cleavage stood at 0.14.
The value for U23C A77G U87A U115C was 0; that for A78G U100C A124U A138U was 2.56.
With G8A G34A U73G U108C, the self-cleavage amounted to 1.16.
Take U46C A69U U73G: the self-cleavage came to 0.16.
U20C A67G G127A: the self-cleavage amounted to 1.05.
Regarding U12A U13C A77G A117G A129U, the self-cleavage amounted to 1.91.
The value for U5C U62C A65G was 0.34; that for U5A A57U U108C was 0.13; that for G33A U62C U134C A138G was 0.01.
As to A22G A30G A121G, the self-cleavage is 1.21.
For A2G C63U A107U, the self-cleavage came to 0.1.
Take U23C G40A U52A A107G A142G: the self-cleavage was 2.08.
For U102C U109C G114A U130C A141G the value was 2.59.
For U13G C38U G55U A64G the value was 0.22; for G54U U81A U119C U130C, 2.14; for A22G A77G C110A U132A, 1.79.
For the variant U46G U52A G89C A117U U132C A136G A138G, the self-cleavage was determined as 0.02.
The value for A57G A67G A69U was 0; that for U47C U81A U112C was 2.64; that for G48A A57G U102C was 0.03.
The value for G70A U112G U143C was 0.13; that for U39G U47C U104C G114A was 2.09.
With U15C U62C A138U, the self-cleavage came out at 0.13.
Regarding U45C U46C U112A, the self-cleavage turned out to be 1.52.
For U13C C17U U62C, the self-cleavage was 0.03.
For U9A U52A A57G A65G U143C, the self-cleavage was found to be 0.
The value for A69G A77U A121G A141G was 0.18; that for G34C U96A G126A A141G was 0.08; that for C16U U29C A43G U96C was 0.
Turning to U26C A117G C128A A138U, the self-cleavage was 1.31.
For G36A A78G U87A A92G U100C A141U the value was 0.03; for U13A A42G G88A, 0.06.
On to U13C U14C C120A, for which the self-cleavage is 1.1.
The value for A42G U132G A138U was 1.02.
Take A6G U73A A107G: the self-cleavage came out at 1.21.
For A2G U9A A22G A69G U134C, the self-cleavage was 0.44.
Turning to U119C A136G U143A, the self-cleavage is 2.12.
The value for U52A A69G A138U was 0.4; that for U15C U29A U130A U134A was 0.58; that for G8U A94U U96A was 0.05.
A65G U73A A140G: the self-cleavage is 0.05.
In the case of U52C A59G A64C A129U, the self-cleavage was 0.
For A30C G74C A141G the value was 0.49.
The value for A79G A121U C123U was 0.97.
On to A6G U12G A42G U47A G135U A142G, for which the self-cleavage is 0.22.
For A50U U52C C56A A141G the value was 0.04; for C17U A43U A94U U119A A142G, 0.31; for U73C A138G U143C, 2.04.
G7C U15C U45C A65G U100C C113U: the self-cleavage was 0.51.
Regarding A43G A64U U87C, the self-cleavage amounted to 0.
The value for A77G U96C U115A was 0; that for U26C U96C G114U was 0.08.
On to A24G A43G U85C, for which the self-cleavage was found to be 0.
For U14C A24C G35A A57U G72A A94U, the self-cleavage is 0.09.
With A22G A94G G122U U134C, the self-cleavage is 0.35.
With U12C U20C U23C A57G C71A, the self-cleavage came to 0.18.
The value for U87C A117U U119C was 0.19; that for A30G A57G A67C was 0; that for A65U U73C G127A was 0.29.
U20C U45A A64U A78C: the self-cleavage was 0.99.
For A30G G80U U96A the value was 0.13; for A2U A78U U81C U115A A124G U132C U134C, 2.76.
In the case of A6G U45C A77U U100C U134C, the self-cleavage was determined as 1.53.
Regarding A77C U104C G105C A141U U143C, the self-cleavage is 1.7.
The value for A57U A69U U73G was 0.02.
With A22C A79G U85A U134C, the self-cleavage was determined as 0.11.
As for U9C C19U U108C, the self-cleavage amounted to 1.86.
For A22U G49A C145U the value was 0.87.
Consider G34A A57G A141G, for which the self-cleavage was 1.22.
Consider G40U U85A U143C, for which the self-cleavage is 0.06.
The value for U73C U109C U112A was 1.75; that for U1A U26G A138G was 0.47.
For U1A G10A G126A the value was 0.99.
For U87A A94G U134C the value was 0.05; for G86A U87A U134C, 0.11.
Regarding U102C U132C U143C, the self-cleavage amounted to 1.67.
For A69U G86A A142G the value was 0.03.
The value for U9A U87A A92G was 0.14; that for U14C A24G A59U U91C U96A U109C C128G was 0.
For A79U A92G U104C A138G the value was 0.26; for U52A A59U A140G, 0.31.
With U15C G34A A92G G126A A136C, the self-cleavage was 0.09.
For G35A U112A G126A the value was 1.43; for U62C U100C U102C, 0; for A30G A69G G106A, 0.18.
In the case of U14C A42G A77G, the self-cleavage was determined as 1.15.
For A30U A59U A78U U134A G144A the value was 0.86.
The value for U13A A59G U104A U119C was 0.
For U14C U39A A69U U73A the value was 0.1; for C18U U20A U91A A142G, 0; for U102A U109C U119C A140G, 1.91.
As to A50G U115C A117C U143C, the self-cleavage turned out to be 1.67.
